Measured values taken from paper PMC4336329 (PLoS ONE, 2015).
In all, about 310,000 compounds went through this assay and about 2,200 (0.71%) showed an effect of 50% or more. Effects have a minus sign here. Some of the results follow.

biological target: human ether-à-go-go-related gene (hERG) potassium channel (human, UniProt Q12809); test: primary screen, population patch clamp on CHO cells stably expressing hERG
Sequence (Q12809 whole entry, looked up): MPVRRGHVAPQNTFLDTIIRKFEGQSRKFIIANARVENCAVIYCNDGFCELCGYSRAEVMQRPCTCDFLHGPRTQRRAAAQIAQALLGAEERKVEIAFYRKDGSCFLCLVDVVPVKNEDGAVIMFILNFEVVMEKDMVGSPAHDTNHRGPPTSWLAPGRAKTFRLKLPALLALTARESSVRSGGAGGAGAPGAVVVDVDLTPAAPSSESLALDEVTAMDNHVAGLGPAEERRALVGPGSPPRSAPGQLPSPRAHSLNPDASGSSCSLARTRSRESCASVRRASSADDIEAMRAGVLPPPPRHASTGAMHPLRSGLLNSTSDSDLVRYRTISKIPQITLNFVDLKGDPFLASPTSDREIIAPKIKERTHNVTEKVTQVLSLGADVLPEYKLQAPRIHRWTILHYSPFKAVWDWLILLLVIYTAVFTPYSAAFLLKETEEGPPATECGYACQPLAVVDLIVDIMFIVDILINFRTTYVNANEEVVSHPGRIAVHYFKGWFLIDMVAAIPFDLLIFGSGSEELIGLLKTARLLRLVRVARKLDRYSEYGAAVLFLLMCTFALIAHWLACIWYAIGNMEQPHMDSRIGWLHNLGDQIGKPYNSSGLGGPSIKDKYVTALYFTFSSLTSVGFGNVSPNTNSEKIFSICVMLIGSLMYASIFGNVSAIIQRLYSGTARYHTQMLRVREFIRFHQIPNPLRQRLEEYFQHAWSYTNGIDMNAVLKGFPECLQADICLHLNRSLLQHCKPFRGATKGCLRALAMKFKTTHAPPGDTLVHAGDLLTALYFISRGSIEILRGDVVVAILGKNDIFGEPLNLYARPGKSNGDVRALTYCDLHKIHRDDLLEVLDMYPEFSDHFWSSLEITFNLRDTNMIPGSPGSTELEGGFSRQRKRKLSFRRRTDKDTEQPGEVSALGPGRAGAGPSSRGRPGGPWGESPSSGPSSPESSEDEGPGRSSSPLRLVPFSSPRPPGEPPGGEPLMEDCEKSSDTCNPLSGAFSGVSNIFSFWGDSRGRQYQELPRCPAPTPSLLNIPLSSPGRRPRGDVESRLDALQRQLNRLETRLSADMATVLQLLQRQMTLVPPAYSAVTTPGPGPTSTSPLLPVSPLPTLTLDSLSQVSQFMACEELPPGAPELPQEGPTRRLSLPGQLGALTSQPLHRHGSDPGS

| Compound | hERG current change (%, negative = inhibition) at 1uM |
| --- | --- |
| CCCCCn1c(CNC(=O)CCC)nc2ccccc21 | -12.4% |
| Cc1ccc(NC(=O)Cn2c(=O)oc3ccccc32)cc1Cl | 14.8% |
| O=[N+]([O-])c1ccc2c(c1)C(N1CCOCC1)/C(=C/COc1ccc(Cl)cc1Cl)O2 (centres unmarked) | 11.2% |
| O=S(=O)(Nc1ccccc1Br)c1cccs1 | 9.87% |
| COc1ccc(S(=O)(=O)N2CCC(N3CCN(Cc4ccccc4)CC3)CC2)cc1.O=C(O)C(=O)O | -14.4% |
| CC1CCN(S(=O)(=O)c2ccc(NC(=O)Cc3cccs3)cc2)CC1 | 10.4% |
| CCN=C1Cn2c(nc3scc(-c4ccccc4)c3c2=O)CN1CC | -2.4% |
| CCNC(=O)C1CCCN1S(=O)(=O)c1ccc(C)cc1 (centres unmarked) | 14% |
| Cc1ccc(SCCC(=O)OCn2nnc3ccccc3c2=O)cc1 | 19.6% |
| CC1CCCCC12NC(=O)N(CC(=O)N(C)Cc1nc3ccccc3c(=O)[nH]1)C2=O (centres unmarked) | 3.81% |
| COc1ccc(-c2cc(C)no2)cc1S(=O)(=O)N1CCOc2ccccc21 | 8.79% |
| CCc1ccc(NC(=S)N(CCCN2CCN(C)CC2)Cc2cccs2)cc1 | -22.9% |
| CCOc1ccccc1CNC(=O)C1CCN(C(=O)c2sccc2-n2cccc2)CC1 | 3.71% |
| Cl.OCCNc1nc(NCc2ccccc2)c2ccccc2n1 | -16% |
| COc1ccc(C(=O)NCCc2nnc3ccc(SCC(=O)NCc4ccc(F)cc4)nn23)cc1 | 12.7% |
| Cc1cccc(OCC(=O)NCC(=O)N/N=C/c2cccs2)c1 | 6.98% |
| OCC[C@H]1C[C@@H](O)[C@H](O)[C@@]2(CCCc3ccccc3O2)O1 | 11.3% |
| Cc1ccc(-n2c(O)c(C=Nc3ccc(S(=O)(=O)N(C)C)cc3)c(=O)[nH]c2=O)cc1 | 13.9% |
| O=C(NCc1ccco1)c1ccc2c(=O)n(CCC3=CCCCC3)c(=O)[nH]c2c1 | 17.7% |
| O=C(NNC(=S)NC(=O)c1cccc([N+](=O)[O-])c1)c1ccc(O)cc1 | 16.1% |
| CCN(CC)S(=O)(=O)c1ccc2c(c1)C(=NO)c1cc(S(=O)(=O)N(CC)CC)ccc1-2 | 5.26% |
| Cc1cc2nc(SCC(=O)Nc3nonc3C)c3c(c2cc1C)CCCC3 | 4.6% |

| Compound | hERG current change (%, negative = inhibition) at 1uM |
| --- | --- |
| Cc1cccc(N2C(=O)N3[C@H](c4ccc(Cl)cc4)[C@@H]4C(=O)N(C5CCCCC5)C(=O)[C@@H]4[C@]3(Cc3ccc(Cl)cc3)C2=O)c1 | 6.27% |
| CC(C)CCNC(=O)Cc1ccccc1[N+](=O)[O-] | -1.26% |
| Cc1nn(C)cc1/C=C(/C#N)C(N)=O | 9.79% |
| O=C(Nc1ccc(N2CCOCC2)cc1)c1ccc(Cl)c(S(=O)(=O)N2CCCCC2)c1 | 14.3% |
| COc1ccc2c(c1)c1nc3ccccc3nc1n2CCCN1C(=O)c2ccccc2C1=O | 7.9% |
| COc1ccc(OCCn2cnc3ccccc32)cc1 | 5.37% |
| COc1c(C)cc(C(=O)C2CCCN(C3CCOCC3)C2)cc1C (centres unmarked) | 0.691% |
| CCCn1c(=O)c2ccccc2n2c(SCC(=O)N3CCc4ccccc4C3)nnc12 | 11.2% |
| C#Cc1ccc2c(c1)COc1c3ccccc3nn1-2 | 9.48% |
| COC/C=C/C1=CC2=CC(=O)C(C)(OC(=O)c3cnc4ccccc4n3)C(=O)C2=CN1CCCOC(C)C (centres unmarked) | 4.37% |
| CCCCCC(/C=N/Nc1ccc(S(=O)(=O)N2CCOCC2)cc1[N+](=O)[O-])=C\c1ccccc1 | 11.1% |
| CC1(C)C2CCC1(CS(=O)(=O)N1CCC(C(N)=O)CC1)C(=O)C2 (centres unmarked) | 0.553% |
| Cc1cccc(C(=O)NCCc2nnc(SCC(=O)Nc3nc(C)cs3)n2C)c1 | 1.36% |
| O=c1c2oc3ccccc3c2ncn1Cc1ccc(Cl)cc1 | 6.5% |
| O=C(NCc1ccc(Cl)cc1)c1cccc(S(=O)(=O)N2CCCC2)c1 | -1.68% |
| Cc1ccc(C(=O)N(CC(C)C)c2c(N)n(Cc3ccccc3)c(=O)[nH]c2=O)o1 | 8.34% |
| Cc1cc(C)c2c(c1)SC1=NC(c3ccccc3)(C(F)(F)F)NC(=O)N12 (centres unmarked) | 16.3% |
| O=C(COC(=O)c1c2c(nc3ccccc13)CCCCC2)c1ccc(Cl)s1 | 8.05% |
| CNc1nnc(CSc2nc(C)cc(C)n2)s1 | 10.8% |
| CC(=O)Nc1cccc(NC(=O)CSc2nc3c(=O)n(C)c(=O)n(C)c3n2C)c1 | 12.6% |
| CCCOC(=O)Cc1n[nH]c(=O)[nH]c1=O | 7.23% |
| CCOc1cc(Br)c(C(=O)O)cc1OCC | 10.3% |

| Compound | hERG current change (%, negative = inhibition) at 1uM |
| --- | --- |
| Cc1ccc(C)c(Cc2c(C)nc3c(C(=O)NCc4ccc5c(c4)OCO5)cnn3c2C)c1 | -7.34% |
| Clc1ccc(CSc2ncccn2)cc1 | 19.7% |
| CCOC(=O)CC1(NC(=O)c2cc(COc3c(F)cccc3F)on2)CCCCC1 | 9.32% |
| CCn1nc(C(=O)NNC(=O)c2ccccc2OCc2c(C)noc2C)c2ccccc2c1=O | 9.55% |
| CCn1cc(Cl)c(C(=O)N2N=C3/C(=C/c4cccs4)CCCC3C2c2cccs2)n1 (centres unmarked) | -11% |
| COc1ccc(OC)c(N2C(=O)[C@@H]3C(c4ccccc4Cl)=NO[C@@H]3C2=O)c1 | 12.3% |
| CC(C)c1ccc(C2NC(=S)NC3=C2C(=O)CC(C)(C)C3)cc1 (centres unmarked) | 10.9% |
| COc1ccc(-c2n[nH]c(=S)n2/N=C/C=C/c2ccccc2OC)cc1 | 4.69% |
| COc1ccc(CCNC(=O)C2CCCN(c3ncnc4c3nc3n4CCCCC3)C2)c(OC)c1 (centres unmarked) | 0.102% |
| Cc1ccc(Cn2nnnc2CN2CCC(c3nc4ccc(Cl)cc4[nH]3)CC2)cc1 | 4.97% |
| COCC[N+]1(C)CCCCC1.[I-] | 7.75% |
| Cn1c(=O)c2c(ncn2CC(=O)Nc2nc3ccc(F)cc3s2)n(C)c1=O | -1.86% |
| COc1ccc(NCc2nnc(SCC(=O)c3ccc(OC)cc3)n2C)cc1 | 6.84% |
| CC(=O)Nc1nc(C)c(Oc2ccc(Cl)cc2)c(=O)[nH]1 | 12.8% |
| CC(C)(C)C1CCC(=NNc2ccc(S(N)(=O)=O)cc2[N+](=O)[O-])CC1 (centres unmarked) | 9.23% |
| CCCN(CCC)c1nc(Cl)nc(NCCN2CCOCC2)n1 | 9.86% |
| Cn1c(COc2ccc(Cl)cc2Cl)nnc1SCC(=O)NCC1CCCO1 (centres unmarked) | 1.31% |
| O=C(O)C1CCC(N2C(=O)c3cccc([N+](=O)[O-])c3C2=O)CC1 (centres unmarked) | 16.5% |
| CC(C)(C)n1ncc2c(=O)n(CC(=O)Nc3ccccc3)cnc21 | 21.6% |
| Cc1ccc(S(=O)(=O)CNC(=O)c2ccccc2)cc1 | 8.5% |
| COc1cc(/C=C2\SC(=O)N(CCNC(=O)c3sc4cc(F)ccc4c3Cl)C2=O)cc(OC)c1OC | 6.76% |
| O=C(COc1cccnc1[N+](=O)[O-])Nc1ccc2c(c1)CCC2 | 1.86% |

| Compound | hERG current change (%, negative = inhibition) at 1uM |
| --- | --- |
| O=C(Nc1cccc([N+](=O)[O-])c1)NC1CCS(=O)(=O)C1 (centres unmarked) | -4.19% |
| CCC(C)C(=O)Nc1ccc(S(=O)(=O)Nc2nccs2)cc1 (centres unmarked) | -1.93% |
| CCC(c1nc2ccccc2c(=O)n1-c1cccnc1)N1C(=O)c2ccccc2C1=O (centres unmarked) | 6.44% |
| Cc1nn(Cc2ccccc2)c(C)c1C(=O)OCC(=O)Nc1ccccc1SCC#N | -4.84% |
| Cc1ccc(C)c(NC(=O)CCC(=O)NN=C2CCCC2)c1 | 11% |
| O=C(Nc1nc2ccc(Cl)cc2s1)c1ccco1 | -4.56% |
| CCOc1ccc(N(C)Cc2cc(=O)oc3ccc(OCC)cc23)cc1 | 10.5% |
| O=C(COc1ccccc1Cl)NCCNC(=O)c1ccco1 | 8.48% |
| COc1ccccc1Nc1[nH+]c(C)cs1.[Br-] | 3.59% |
| Cc1ccc(S(=O)(=O)N(Cc2cc3ccc(C)cc3[nH]c2=O)c2ccccc2)cc1 | 3.29% |
| COc1ccccc1NS(=O)(=O)c1cccc(-n2c(O)c(C=Nc3ccccc3C(=O)O)c3ccccc3c2=O)c1 | 7.89% |
| COc1ccc(-c2cc(C(=O)Nc3cc(C)on3)no2)cc1OC | 8.44% |
| COc1ccc(C(=O)N2CCCC(CNC(=O)c3ccccc3Cl)C2)o1 (centres unmarked) | 13.1% |
| CC1CCCC(C)N1/N=C/c1ccc(N(C)C)cc1 (centres unmarked) | 11.2% |
| N#CC(C(N)=O)=C1CCC2(CC1)OCCCCO2 | 6.67% |
| Cc1ccc(C(=O)Nc2ncn[nH]2)cc1 | 13.2% |
| COc1cc(C)ccc1OCCOCCN(C)Cc1ccccc1.O=C(O)C(=O)O | -9.62% |
| Cc1nn(Cc2ccc(Cl)cc2)c(Cl)c1/C=N/NC(=O)CNc1ccccc1F | 13.7% |
| CC(=O)NC1CCCc2c1cnn2-c1ccc(C(C)(C)C)cc1 (centres unmarked) | 8.29% |
| CCOc1ccc(CN2CCNC(=O)C2CC(=O)NCCc2ccccn2)cc1 (centres unmarked) | 12.5% |
